Data as given in the supplement of paper PMC9151546.
Repeats are few or missing, and single values can be far off.

How the values were obtained:
CHO-K1 [1] = test: hypodiploid nuclei frequency (% of nucleated events); higher = more hypodiploid events (aneugenic)
CHO-K1 [2] = test: relative survival (nuclei to bead ratio vs DMSO control) (% of vehicle control); higher = more surviving cells
CHO-K1 [3] = test: micronucleus frequency (% of nucleated events); higher = more micronuclei (genotoxic)
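For hypodiploid nuclei frequency (% of nucleated events) in this document: hypodiploid nuclei gated on a flow cytometer with 488 nm excitation after SYTOX Green staining, cultures at 37 °C, positive controls vinblastine without S9 and cyclophosphamide with S9.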
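For micronucleus frequency (% of nucleated events) in this document: cells lysed with nuclei stained by SYTOX Green, then micronucleus-gated events counted against nucleated events by flow cytometry with 488 nm excitation.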
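For relative survival (nuclei to bead ratio vs DMSO control) in this document: Lysed-cell nuclei stained with SYTOX Green and counted against counting beads by flow cytometry at 488 nm excitation, with vinblastine (no S9) and cyclophosphamide (plus S9) as positive controls.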

Clc1cccc(Cl)c1 [1,3-Dichlorobenzene]
Conditions	hypodiploid nuclei frequency, CHO-K1 [1] [%]	micronucleus frequency, CHO-K1 [3] [%]	relative survival, CHO-K1 [2]
concentration: 4.5 (µM), S9 metabolic activation: with S9, exposure time: 3-4 hours	0.26	1.08	99.5
concentration: 4.5 (µM), S9 metabolic activation: without S9, exposure time: 24 hours	0.42	1.08	98.6
concentration: 5.63 (µM), S9 metabolic activation: with S9, exposure time: 3-4 hours	0.2	1.32	84.2
concentration: 5.63 (µM), S9 metabolic activation: without S9, exposure time: 24 hours	0.48	0.88	115
concentration: 7.04 (µM), S9 metabolic activation: with S9, exposure time: 3-4 hours	0.18	1.04	99.3
concentration: 7.04 (µM), S9 metabolic activation: without S9, exposure time: 24 hours	0.66	1.22	92.1
concentration: 8.8 (µM), S9 metabolic activation: with S9, exposure time: 3-4 hours	0.38	0.92	95.7
concentration: 8.8 (µM), S9 metabolic activation: without S9, exposure time: 24 hours	0.66	1.1	80.9
concentration: 11 (µM), S9 metabolic activation: with S9, exposure time: 3-4 hours	0.28	1.16	107
concentration: 11 (µM), S9 metabolic activation: without S9, exposure time: 24 hours	0.58	1.26	93.6
concentration: 13.7 (µM), S9 metabolic activation: with S9, exposure time: 3-4 hours	0.28	1.14	94.4
concentration: 13.7 (µM), S9 metabolic activation: without S9, exposure time: 24 hours	0.64	1.32	85.6
concentration: 17.2 (µM), S9 metabolic activation: with S9, exposure time: 3-4 hours	0.16	0.96	95.5
concentration: 17.2 (µM), S9 metabolic activation: without S9, exposure time: 24 hours	0.54	1.16	97.8
concentration: 21.5 (µM), S9 metabolic activation: with S9, exposure time: 3-4 hours	0.44	1.58	110
concentration: 21.5 (µM), S9 metabolic activation: without S9, exposure time: 24 hours	0.4	1.56	123
concentration: 26.8 (µM), S9 metabolic activation: with S9, exposure time: 3-4 hours	0.16	1.1	139
concentration: 26.8 (µM), S9 metabolic activation: without S9, exposure time: 24 hours	0.64	1.76	74.4
concentration: 33.6 (µM), S9 metabolic activation: with S9, exposure time: 3-4 hours	0.32	1.32	134
concentration: 33.6 (µM), S9 metabolic activation: without S9, exposure time: 24 hours	0.68	1.38	99
concentration: 41.9 (µM), S9 metabolic activation: with S9, exposure time: 3-4 hours	0.26	0.9	111
concentration: 41.9 (µM), S9 metabolic activation: without S9, exposure time: 24 hours	0.82	1.16	88.1
concentration: 52.4 (µM), S9 metabolic activation: with S9, exposure time: 3-4 hours	0.34	1.1	87.5
concentration: 52.4 (µM), S9 metabolic activation: without S9, exposure time: 24 hours	0.46	1.4	86.5
concentration: 65.5 (µM), S9 metabolic activation: with S9, exposure time: 3-4 hours	0.38	0.66	81
concentration: 65.5 (µM), S9 metabolic activation: without S9, exposure time: 24 hours	0.56	1.1	79.1
concentration: 81.9 (µM), S9 metabolic activation: with S9, exposure time: 3-4 hours	0.28	1.36	99.5
concentration: 81.9 (µM), S9 metabolic activation: without S9, exposure time: 24 hours	0.74	1.2	88.1
concentration: 102 (µM), S9 metabolic activation: with S9, exposure time: 3-4 hours	0.32	1.46	95.2
concentration: 102 (µM), S9 metabolic activation: without S9, exposure time: 24 hours	0.62	1.36	92.1
concentration: 128 (µM), S9 metabolic activation: with S9, exposure time: 3-4 hours	0.24	1.34	103
concentration: 128 (µM), S9 metabolic activation: without S9, exposure time: 24 hours	0.82	1.94	79.9
concentration: 160 (µM), S9 metabolic activation: with S9, exposure time: 3-4 hours	0.26	1.74	100
concentration: 160 (µM), S9 metabolic activation: without S9, exposure time: 24 hours	0.9	1.86	96.2
concentration: 200 (µM), S9 metabolic activation: with S9, exposure time: 3-4 hours	0.22	2.08	82.4
concentration: 200 (µM), S9 metabolic activation: without S9, exposure time: 24 hours	1.1	1.76	100

O=c1ccc2ccccc2o1 [Coumarin]
Conditions	hypodiploid nuclei frequency, CHO-K1 [1] [%]	micronucleus frequency, CHO-K1 [3] [%]	relative survival, CHO-K1 [2]
concentration: 4.5 (µM), S9 metabolic activation: with S9, exposure time: 3-4 hours	0.3	1.82	87.4
concentration: 4.5 (µM), S9 metabolic activation: without S9, exposure time: 24 hours	0.36	0.74	106
concentration: 5.63 (µM), S9 metabolic activation: with S9, exposure time: 3-4 hours	0.23	1.38	73.3
concentration: 5.63 (µM), S9 metabolic activation: without S9, exposure time: 24 hours	0.7	2.3	85
concentration: 7.04 (µM), S9 metabolic activation: with S9, exposure time: 3-4 hours	0.2	1.66	77.1
concentration: 7.04 (µM), S9 metabolic activation: without S9, exposure time: 24 hours	0.72	2.16	89.4
concentration: 8.8 (µM), S9 metabolic activation: with S9, exposure time: 3-4 hours	0.28	1.36	73.5
concentration: 8.8 (µM), S9 metabolic activation: without S9, exposure time: 24 hours	0.48	2.6	90.5
concentration: 11 (µM), S9 metabolic activation: with S9, exposure time: 3-4 hours	0.18	1.62	76.1
concentration: 11 (µM), S9 metabolic activation: without S9, exposure time: 24 hours	0.6	1.36	91.6
concentration: 13.7 (µM), S9 metabolic activation: with S9, exposure time: 3-4 hours	0.16	1.56	75.5
concentration: 13.7 (µM), S9 metabolic activation: without S9, exposure time: 24 hours	1.02	3.1	93.8
concentration: 17.2 (µM), S9 metabolic activation: with S9, exposure time: 3-4 hours	0.16	1.48	88.9
concentration: 17.2 (µM), S9 metabolic activation: without S9, exposure time: 24 hours	0.76	1.94	94.6
concentration: 21.5 (µM), S9 metabolic activation: with S9, exposure time: 3-4 hours	0.16	1.38	91.1
concentration: 21.5 (µM), S9 metabolic activation: without S9, exposure time: 24 hours	0.58	2.8	84.1
concentration: 26.8 (µM), S9 metabolic activation: with S9, exposure time: 3-4 hours	0.24	2.34	90.6
concentration: 26.8 (µM), S9 metabolic activation: without S9, exposure time: 24 hours	1.18	2.68	93.5
concentration: 33.6 (µM), S9 metabolic activation: with S9, exposure time: 3-4 hours	0.44	2.46	79.4
concentration: 33.6 (µM), S9 metabolic activation: without S9, exposure time: 24 hours	0.9	2.66	100
concentration: 41.9 (µM), S9 metabolic activation: with S9, exposure time: 3-4 hours	0.32	2.36	82.5
concentration: 41.9 (µM), S9 metabolic activation: without S9, exposure time: 24 hours	1.02	2.7	101
concentration: 52.4 (µM), S9 metabolic activation: with S9, exposure time: 3-4 hours	0.14	1.54	90.6
concentration: 52.4 (µM), S9 metabolic activation: without S9, exposure time: 24 hours	0.82	3.2	107
concentration: 65.5 (µM), S9 metabolic activation: with S9, exposure time: 3-4 hours	0.42	2.58	92
concentration: 65.5 (µM), S9 metabolic activation: without S9, exposure time: 24 hours	0.96	3.06	97.5
concentration: 81.9 (µM), S9 metabolic activation: with S9, exposure time: 3-4 hours	0.36	2	84.4
concentration: 81.9 (µM), S9 metabolic activation: without S9, exposure time: 24 hours	1.06	2.32	102
concentration: 102 (µM), S9 metabolic activation: with S9, exposure time: 3-4 hours	0.5	2.58	84.8
concentration: 102 (µM), S9 metabolic activation: without S9, exposure time: 24 hours	1.12	3.44	97.5
concentration: 128 (µM), S9 metabolic activation: with S9, exposure time: 3-4 hours	0.26	1.42	94.6
concentration: 128 (µM), S9 metabolic activation: without S9, exposure time: 24 hours	1.14	1.9	108
concentration: 160 (µM), S9 metabolic activation: with S9, exposure time: 3-4 hours	0.38	1.76	88.9
concentration: 160 (µM), S9 metabolic activation: without S9, exposure time: 24 hours	1.24	3.82	91.9
concentration: 200 (µM), S9 metabolic activation: with S9, exposure time: 3-4 hours	0.4	1.92	74
concentration: 200 (µM), S9 metabolic activation: without S9, exposure time: 24 hours	1.62	2.2	93.1

Oc1ccccc1 [Phenol]
Conditions	hypodiploid nuclei frequency, CHO-K1 [1] [%]	micronucleus frequency, CHO-K1 [3] [%]	relative survival, CHO-K1 [2]
concentration: 4.55 (µM), S9 metabolic activation: with S9, exposure time: 3-4 hours	0.16	1.02	127
concentration: 4.55 (µM), S9 metabolic activation: without S9, exposure time: 24 hours	0.5	1.38	119
concentration: 5.69 (µM), S9 metabolic activation: with S9, exposure time: 3-4 hours	0.18	0.88	104
concentration: 5.69 (µM), S9 metabolic activation: without S9, exposure time: 24 hours	0.78	1.34	121
concentration: 7.11 (µM), S9 metabolic activation: with S9, exposure time: 3-4 hours	0.12	0.9	120
concentration: 7.11 (µM), S9 metabolic activation: without S9, exposure time: 24 hours	0.58	1.16	112
concentration: 8.88 (µM), S9 metabolic activation: with S9, exposure time: 3-4 hours	0.22	1.04	122
concentration: 8.88 (µM), S9 metabolic activation: without S9, exposure time: 24 hours	0.88	1.06	113
concentration: 11.1 (µM), S9 metabolic activation: with S9, exposure time: 3-4 hours	0.22	0.96	123
concentration: 11.1 (µM), S9 metabolic activation: without S9, exposure time: 24 hours	0.96	1.16	104
concentration: 13.9 (µM), S9 metabolic activation: with S9, exposure time: 3-4 hours	0.28	1.14	113
concentration: 13.9 (µM), S9 metabolic activation: without S9, exposure time: 24 hours	1.2	1.32	107
concentration: 17.4 (µM), S9 metabolic activation: with S9, exposure time: 3-4 hours	0.38	1.04	110
concentration: 17.4 (µM), S9 metabolic activation: without S9, exposure time: 24 hours	1.18	1.34	110
concentration: 21.7 (µM), S9 metabolic activation: with S9, exposure time: 3-4 hours	0.34	0.82	112
concentration: 21.7 (µM), S9 metabolic activation: without S9, exposure time: 24 hours	1.4	1.18	108
concentration: 27.1 (µM), S9 metabolic activation: with S9, exposure time: 3-4 hours	0.28	0.7	101
concentration: 27.1 (µM), S9 metabolic activation: without S9, exposure time: 24 hours	0.74	1.52	100
concentration: 33.9 (µM), S9 metabolic activation: with S9, exposure time: 3-4 hours	0.24	0.8	105
concentration: 33.9 (µM), S9 metabolic activation: without S9, exposure time: 24 hours	1	1.24	125
concentration: 42.4 (µM), S9 metabolic activation: with S9, exposure time: 3-4 hours	0.4	1.12	136
concentration: 42.4 (µM), S9 metabolic activation: without S9, exposure time: 24 hours	0.98	1.24	117
concentration: 53 (µM), S9 metabolic activation: with S9, exposure time: 3-4 hours	0.32	0.66	105
concentration: 53 (µM), S9 metabolic activation: without S9, exposure time: 24 hours	1.02	1.06	108
concentration: 66.2 (µM), S9 metabolic activation: with S9, exposure time: 3-4 hours	0.28	0.94	102
concentration: 66.2 (µM), S9 metabolic activation: without S9, exposure time: 24 hours	0.88	1.52	115
concentration: 82.7 (µM), S9 metabolic activation: with S9, exposure time: 3-4 hours	0.18	0.96	93.4
concentration: 82.7 (µM), S9 metabolic activation: without S9, exposure time: 24 hours	1.28	1.5	98
concentration: 103 (µM), S9 metabolic activation: with S9, exposure time: 3-4 hours	0.14	1	109
concentration: 103 (µM), S9 metabolic activation: without S9, exposure time: 24 hours	1.3	1.9	93
concentration: 129 (µM), S9 metabolic activation: with S9, exposure time: 3-4 hours	0.24	0.98	106
concentration: 129 (µM), S9 metabolic activation: without S9, exposure time: 24 hours	1.42	1.7	126
concentration: 162 (µM), S9 metabolic activation: with S9, exposure time: 3-4 hours	0.34	1.1	116
concentration: 162 (µM), S9 metabolic activation: without S9, exposure time: 24 hours	1.58	1.74	101
concentration: 202 (µM), S9 metabolic activation: with S9, exposure time: 3-4 hours	0.14	1.1	90
concentration: 202 (µM), S9 metabolic activation: without S9, exposure time: 24 hours	1.64	2.28	89.5
